Results: PubChem BioAssay AID504832 (National Center for Advancing Translational Sciences (NCATS), 2011)
The campaign covered roughly 310,000 compounds. About 18,000 (5.8%) were called active. The inconclusive results got no clear call from the source; some entries with a clear call stand among them for comparison. The call rests on the fitted dose curve; in most records, active means well fitted inhibition curve with a large enough effect; inconclusive means small, poorly fitted or top-dose-only effect, or another doubt; inactive means no such curve, though single readings can be large or run the other way. Potencies of inconclusive entries are left out as doubtful fits.

assay: Primary qHTS for delayed death inhibitors of the malarial parasite plastid, 48 hour incubation; details: P. falciparum luciferase growth in erythrocytes; series mostly up to 28.7 µM; activity change, negative = inhibition: at the top concentration
Summary of the method: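 Here the parasites carry a stable luciferase gene and grow inside erythrocytes in Albumax-based RPMI medium with compound for one erythrocytic cycle. Activity is scored as loss of luminescent signal.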
On the % scale 0 is the no-effect control and ±100 the full control effect; potency means the concentration at half of the fitted maximal effect; tags describe the fitted curve by direction and shape.

Structure (SMILES) | Potency | activity change, negative = inhibition
CCCNC(=O)c1ccc(COc2cccc3ccccc23)o1 | inconclusive [inhibitor, partial curve] | 
CC(C)c1ccc(NC(=S)N2CCCC(c3ccc(F)cc3)=N2)cc1 | inconclusive [inhibitor, single point] | 
Cc1ccccc1Nc1cccc2nonc12 |  | inactive: -15.8%
CCOC(=O)O[C@@H](C)OC(=O)[C@@H]1N2C(=O)[C@@H](NC(=O)[C@@H](N)c3ccccc3)[C@H]2SC1(C)C |  | inactive: -1.86% [at 12.8 µM]
CCN(C1CCS(=O)(=O)C1)S(=O)(=O)c1cccs1 (stereo not drawn) |  | inactive: -5.08%
Cc1c(C(=O)NCc2cccnc2)oc2ccc(S(=O)(=O)N3CCCCCC3)cc12 | active: 9.28 µM | 
COc1ccc2[nH]c3c4c(ccc3c2c1)C(=O)C=CC4=O | inconclusive [inhibitor, full curve, poor fit] | 
CCCCn1c(NCc2ccc3c(c2)OCO3)nc2ccccc21 | inconclusive [inhibitor, single point] | 
O=C(Cc1nnc(NC(=O)Nc2ccccc2)s1)Nc1ccccc1 |  | inactive: 56.3%
COc1cccc(NC(=S)N(CCc2c(C)[nH]c3ccccc23)Cc2cccs2)c1 | inconclusive [inhibitor, single point] | 
Cc1cc(S(=O)(=O)N2CCCC(C)C2)ccc1-n1cnnn1 (stereo not drawn) |  | inactive: -4.73%
C=C(C)CSc1nnc([C@@H]2CCCN2C(=O)OC(C)(C)C)o1 |  | inactive: -4.86%
Cc1cc(C)n2nc(C(=O)N3CCCC(CNS(=O)(=O)c4cccs4)C3)cc2n1 (stereo not drawn) | inconclusive [inhibitor, partial curve, poor fit] | 
Cc1ccc(C(=O)O)cc1S(=O)(=O)Nc1ccccc1C(=O)NC1CC1 | inconclusive [inhibitor, single point] | 
COc1cc(NC(=O)C(C)Oc2ccccc2)ccc1NC(=O)COc1ccccc1 (stereo not drawn) | inconclusive [inhibitor, single point] | 
CCc1ccc(-c2cc(C)no2)cc1S(=O)(=O)N1CCOc2ccccc21 | active: 8.28 µM | 
CCOc1ccc(S(=O)(=O)N2CCN(C(=S)NCc3ccccc3)CC2)cc1 | active: 2.33 µM | 
CNC(=O)c1nc(C)c(C2(C)CC(c3cccc([N+](=O)[O-])c3)=NO2)s1 (stereo not drawn) |  | inactive: 8.6%
O=c1c2ccccc2nc(-c2cccs2)n1-c1ccc2ccccc2c1 |  | inactive: -2.53%
COC(=O)c1nc2cc(C)ccn2c1F | inconclusive [inhibitor, full curve, poor fit] | 
COc1ccc(Cl)cc1NC(=O)C[n+]1ccccc1 | inconclusive [inhibitor, single point] | 
CC(=O)c1c(C)n([O-])c2cc(C)ccc2[n+]1=O |  | inactive: 9.21%
C/C(CC(=O)Nc1cccc(Cl)c1Cl)=N\NC(=O)C(=O)N1CCCC1 |  | inactive: 35.2%
CCn1cc(C(=O)NCCCN2CCC(C)CC2)c(=O)c2cc(S(=O)(=O)N3CCOCC3)ccc21 | inconclusive [inhibitor, partial curve, poor fit] | 
CCCC(=O)Nc1nc(-c2ccc3c(c2)CCN3S(C)(=O)=O)cs1 |  | inactive: -19.3%

Structure (SMILES) | Potency | activity change, negative = inhibition
COc1ccc(C2CC(=O)C3=C(C2)Nc2ccccc2NC3c2coc3ccccc3c2=O)cc1OC (stereo not drawn) | active: 7.38 µM | 
O=C(NCc1ccco1)c1ccc2c(=O)n(-c3ccccc3)c(=O)n(Cc3cccc(F)c3)c2c1 | inconclusive [inhibitor, single point] | 
O=C(Nc1ccc(OCC(F)(F)C(F)F)c(C(F)(F)F)c1)c1ccccc1O | active: 2.08 µM | 
CN1CCC(N(C)S(=O)(=O)c2ccc(NC(=O)COc3ccc(Cl)cc3)cc2)CC1 | active: 8.28 µM | 
O=C(CSCc1nc2ccccc2[nH]1)N1CCN(c2cccc(Cl)c2)CC1 | inconclusive [inhibitor, single point] | 
CCCCOc1ccc(Cl)cc1CSc1nnc(CC)n1N | inconclusive [inhibitor, single point] | 
COc1ccccc1CNC(=O)c1cc(-c2ccncc2)nc2c(Cl)cccc12 | inconclusive [inhibitor, partial curve] | 
O=S(=O)(Cc1ccccc1Cl)NCCc1ccccc1 |  | inactive: -6.22%
Cc1ccc2nc3sc(C(=O)Nc4ccc(N5CCOCC5)cc4)c(N)c3cc2c1 | inconclusive [inhibitor, single point] | 
C=CCn1c(SCC(=O)NC2CCCCC2)nnc1-c1cccnc1 |  | inactive: -8.45%
CCOC(=O)CSC1=Nc2ccccc2C2=NC(CC(=O)NCc3cccs3)C(=O)N12 (stereo not drawn) | active: 10.4 µM | 
C=C(C)c1cccc(C(C)(C)NC(=O)N2CCN(c3ccccc3OC)CC2)c1 | inconclusive [inhibitor, single point] | 
CN1CCN(Cc2nc(N)nc(Nc3ccc4c(c3)OCCO4)n2)CC1 |  | inactive: 50.6%
O=C(c1ccc(Cl)c(S(=O)(=O)N2CCCCC2)c1)N1CCCC(C(F)(F)F)C1 (stereo not drawn) | inconclusive [inhibitor, single point] | 
Cc1[nH]c2ccc(C(=O)Nc3ccncc3)cc2c1C | inconclusive [inhibitor, single point] | 
CC1CC(C)(C)N(C(=O)CN2C(=O)c3ccccc3C2=O)c2ccccc21 (stereo not drawn) | inconclusive [inhibitor, single point] | 
COc1cccc(NC(=O)Cn2nnc(C(=O)NCc3ccc4c(c3)OCO4)c2N)c1 |  | inactive: 17%
CCOc1cc(CNCCCN2CCOCC2)cc(Br)c1OCC(=O)Nc1cccc(C(F)(F)F)c1 | active: 1.17 µM | 
CCCc1nc2oc3ccccc3c(=O)c2c(=O)n1CCCOC | inconclusive [inhibitor, single point] | 
COc1ccc(/C=C(/NC(=O)c2cccs2)C(=O)NC(C)(C)C)cc1OC |  | inactive: 11.1%
Cc1nnc(SCc2nc3ccccc3c(=O)n2-c2ccccc2Cl)n1N |  | inactive: -11.4%
CCCCOCCCNC(=O)c1cccs1 | inconclusive [inhibitor, partial curve] | 
COc1cccc(NC(=O)c2cc(Cl)nnc2Cl)c1 | active: 3.7 µM | 
Cc1ccc(NC(=O)CSc2nc3ccc(Nc4nc(N5CCOCC5)nc(N5CCOCC5)n4)cc3s2)cc1 | inconclusive [inhibitor, full curve, poor fit] | 
CC(Sc1nc2ccccc2s1)C(=O)N1CCOCC1 (stereo not drawn) |  | inactive: 19%

Structure (SMILES) | Potency | activity change, negative = inhibition
CN(CC(=O)Nc1c(Cl)cccc1Cl)C(=O)c1cc(S(=O)(=O)N(C)C)ccc1N1CCCC1 | inconclusive [inhibitor, partial curve, poor fit] | 
O=C(COc1ccc(C(=O)NCC2CCCO2)cc1)Nc1cccc(C(F)(F)F)c1 (stereo not drawn) | inconclusive [inhibitor, partial curve, poor fit] | 
CSc1ccc(CN2CCCC(CNC(=O)c3ccc(F)cc3)C2)cc1 (stereo not drawn) | inconclusive [inhibitor, partial curve, poor fit] | 
COc1cc2c(cc1OC)/C(=C/C#N)NC(C)(C)C2 | active: 9.28 µM | 
COc1ccc(C(=O)NC(=S)Nc2ccc(Cc3ccncc3)cc2)cc1 | inconclusive [inhibitor, single point] | 
COc1ccc(OC)c(C(C)NC(=S)NC2CCCCC2)c1 (stereo not drawn) | inconclusive [inhibitor, single point] | 
CCNC(=O)N1c2ccc(OC)cc2C(C)=CC1(C)C |  | inactive: 18.7%
O=C(C1CCCN(S(=O)(=O)c2ccccc2)C1)N1CCN(c2ccc(F)cc2)CC1 (stereo not drawn) | active: 13.1 µM | 
Cc1cccc(CC(=O)NCCS(=O)(=O)N2CCN(c3cccc(Cl)c3)CC2)c1 | inconclusive [inhibitor, single point] | 
Cc1cc(C(=S)N2CCOCC2)c(C)n1-c1ccc(Cl)cc1 | inconclusive [inhibitor, single point] | 
COCCN(C(=O)CC1C(=O)NCCN1CC(c1ccccc1)c1ccccc1)C(C)C (stereo not drawn) | inconclusive [inhibitor, partial curve] | 
CCN1CCN(C(=O)C2CCN(c3nnc(C)c4c(C)n(-c5ccc(C)cc5)nc34)CC2)CC1 | inconclusive [inhibitor, single point] | 
O=C(Nc1ccc(-c2nc3cccnc3s2)cc1)C1CCCO1 (stereo not drawn) |  | inactive: 84.3%
COc1ccccc1NC(=O)CSc1nc(=O)n(Cc2ccncc2)c2c1CCCC2 | inconclusive [inhibitor, single point] | 
CCOC(=O)c1cc(S(=O)(=O)NCCc2ccc(OC)c(OC)c2)cn1C |  | inactive: -14.8%
O=C(Cn1cccc1C(=O)c1ccccc1)NCCC1=CCCCC1 |  | inactive: -12.5%
COc1cc(NC(=O)c2ccccc2)c(OC)cc1NC(=O)Cc1ccc(F)cc1 | inconclusive [inhibitor, partial curve, poor fit] | 
CCOc1ccc(Br)c(C2(O)CC(C)N(C)CC2C)c1 (stereo not drawn) | inconclusive [inhibitor, single point] | 
COc1cccc(N2CCN(C(=O)c3oc4ccccc4c3NC(=O)Cc3ccc(OC)c(OC)c3)CC2)c1 | inconclusive [inhibitor, partial curve] | 
CC1(C)CC(=O)C=C(NC2=CC3OC(c4ccccc4)OCC3OC2=O)C1 (stereo not drawn) |  | inactive: 15.2%
CCOC(=O)c1ccc(-n2c(CN3CCC(O)CC3)nc3ccc([N+](=O)[O-])cc3c2=O)cc1 | inconclusive [inhibitor, single point] | 
CN(C)CCCN(C(=O)c1cc(-c2cccs2)nc2ccccc12)c1nc2ccc(F)cc2s1 | active: 3.29 µM | 
COCCCNc1nc(CC(C)C)nc2c1nnn2Cc1ccccc1 | inconclusive [inhibitor, full curve] | 
